# Source: patent US20240076343A1 (CEPHALON, published 2024)
# T1: high-affinity hIL-2 receptor (IL-2Rαβγ) on NK-92 cells (human, UniProt P01589 22-272; P14784 27-551; P31785 23-369)
# T1 sequence 1: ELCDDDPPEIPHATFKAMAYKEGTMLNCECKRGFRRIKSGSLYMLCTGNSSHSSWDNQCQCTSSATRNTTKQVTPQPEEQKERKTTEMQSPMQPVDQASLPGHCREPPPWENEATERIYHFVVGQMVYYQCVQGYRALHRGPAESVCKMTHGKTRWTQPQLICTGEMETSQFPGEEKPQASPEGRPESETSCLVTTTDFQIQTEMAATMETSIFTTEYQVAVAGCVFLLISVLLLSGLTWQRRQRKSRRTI
# T1 sequence 2: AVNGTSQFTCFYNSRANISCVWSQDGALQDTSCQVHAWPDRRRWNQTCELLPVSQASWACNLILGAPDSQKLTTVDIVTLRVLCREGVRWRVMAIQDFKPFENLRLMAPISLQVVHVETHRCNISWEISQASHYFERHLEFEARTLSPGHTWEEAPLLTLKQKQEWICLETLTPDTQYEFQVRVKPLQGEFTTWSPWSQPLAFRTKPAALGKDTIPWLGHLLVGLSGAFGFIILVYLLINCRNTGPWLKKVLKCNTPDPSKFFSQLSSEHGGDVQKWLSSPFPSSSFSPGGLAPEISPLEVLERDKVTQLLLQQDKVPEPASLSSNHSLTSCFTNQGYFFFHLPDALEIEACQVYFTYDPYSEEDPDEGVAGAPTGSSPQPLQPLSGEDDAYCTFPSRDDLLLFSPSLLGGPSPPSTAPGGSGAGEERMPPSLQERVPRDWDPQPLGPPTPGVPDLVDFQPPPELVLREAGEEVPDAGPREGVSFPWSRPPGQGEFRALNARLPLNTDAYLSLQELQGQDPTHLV
# T1 sequence 3: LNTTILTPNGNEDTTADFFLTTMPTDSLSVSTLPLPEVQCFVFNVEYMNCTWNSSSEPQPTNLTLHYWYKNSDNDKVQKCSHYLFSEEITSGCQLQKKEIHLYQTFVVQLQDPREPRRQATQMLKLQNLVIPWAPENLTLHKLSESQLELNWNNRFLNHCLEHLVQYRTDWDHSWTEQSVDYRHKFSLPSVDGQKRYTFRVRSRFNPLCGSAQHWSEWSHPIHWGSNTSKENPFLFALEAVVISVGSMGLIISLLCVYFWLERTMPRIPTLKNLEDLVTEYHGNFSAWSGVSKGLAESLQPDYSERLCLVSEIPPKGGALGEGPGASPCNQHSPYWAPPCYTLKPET
# T2: intermediate affinity hIL-2 receptor complex (IL-2Rβγ) on TF1+IL-2Rβ cells (human, UniProt P14784 27-551; P31785 23-369)
# T2 sequence 1: T1 sequence 2
# T2 sequence 2: T1 sequence 3
# B1: 1H3-hIgG1-L6-hCD25(1-164)-L20-hIL-2 (I92A) (other)
# heavy: EVQLVESGGGLVQPGRSLKLSCAVSGFTFSDYAMAWVRQAPKKGLEWVATISYDGSRTYYRDSVKGRFTISRDNAKITLYLQMDSLRSEDTATYYCARHGSGYFDYWGQGVMVTVSS[not shown - human IgG1 constant region]SGGGGSELCDDDPPEIPHATFKAMAYKEGTMLNCECKRGFRRIKSGSLYMLCTGNSSHSSWDNQCQCTSSATRNTTKQVTPQPEEQKERKTTEMQSPMQPVDQASLPGHCREPPPWENEATERIYHFVVGQMVYYQCVQGYRALHRGPAESVCKMTHGKTRWTQPQLICTSGGGGSGGGGSGGGGSGGGS[not shown - about 150 residues]
# light: DTVLTQSPALAVSPGERVTISCRASESVRTGVHWYQQKPGQQPKLLIYGASNLESGVPARFSGSGSGTDFTLTIDPVEADDTATYFCQQSWNDPFTFGSGTKLEIKRTVAAPSVFIFPPSDEQLKSGTASVVCLLNNFYPREAKVQWKVDNALQSGNSQESVTEQDSKDSTYSLSSTLTLSKADYEKHKVYACEVTHQGLSSPVTKSFNRGEC
# B2: 1H3-hIgG1-L6-hCD25(1-164)-L20-hIL-2 (E95A) (other)
# heavy: EVQLVESGGGLVQPGRSLKLSCAVSGFTFSDYAMAWVRQAPKKGLEWVATISYDGSRTYYRDSVKGRFTISRDNAKITLYLQMDSLRSEDTATYYCARHGSGYFDYWGQGVMVTVSS[not shown - human IgG1 constant region]SGGGGSELCDDDPPEIPHATFKAMAYKEGTMLNCECKRGFRRIKSGSLYMLCTGNSSHSSWDNQCQCTSSATRNTTKQVTPQPEEQKERKTTEMQSPMQPVDQASLPGHCREPPPWENEATERIYHFVVGQMVYYQCVQGYRALHRGPAESVCKMTHGKTRWTQPQLICTSGGGGSGGGGSGGGGSGGGS[not shown - about 150 residues]
# light: B1 light
# B3: 1H3-hIgG1-L6-hCD25(1-164)-L20-hIL-2 (S87A) (other)
# heavy: EVQLVESGGGLVQPGRSLKLSCAVSGFTFSDYAMAWVRQAPKKGLEWVATISYDGSRTYYRDSVKGRFTISRDNAKITLYLQMDSLRSEDTATYYCARHGSGYFDYWGQGVMVTVSS[not shown - human IgG1 constant region]SGGGGSELCDDDPPEIPHATFKAMAYKEGTMLNCECKRGFRRIKSGSLYMLCTGNSSHSSWDNQCQCTSSATRNTTKQVTPQPEEQKERKTTEMQSPMQPVDQASLPGHCREPPPWENEATERIYHFVVGQMVYYQCVQGYRALHRGPAESVCKMTHGKTRWTQPQLICTSGGGGSGGGGSGGGGSGGGS[not shown - about 150 residues]
# light: B1 light
# B4: 1H3-hIgG1-L6-hCD25(1-164)-L20-hIL-2 (E95K) (other)
# heavy: EVQLVESGGGLVQPGRSLKLSCAVSGFTFSDYAMAWVRQAPKKGLEWVATISYDGSRTYYRDSVKGRFTISRDNAKITLYLQMDSLRSEDTATYYCARHGSGYFDYWGQGVMVTVSS[not shown - human IgG1 constant region]SGGGGSELCDDDPPEIPHATFKAMAYKEGTMLNCECKRGFRRIKSGSLYMLCTGNSSHSSWDNQCQCTSSATRNTTKQVTPQPEEQKERKTTEMQSPMQPVDQASLPGHCREPPPWENEATERIYHFVVGQMVYYQCVQGYRALHRGPAESVCKMTHGKTRWTQPQLICTSGGGGSGGGGSGGGGSGGGS[not shown - about 150 residues]
# light: B1 light
# B5: 1H3-hIgG1-L6-hCD25(1-164)-L20-hIL-2 (D20Y) (other)
# heavy: EVQLVESGGGLVQPGRSLKLSCAVSGFTFSDYAMAWVRQAPKKGLEWVATISYDGSRTYYRDSVKGRFTISRDNAKITLYLQMDSLRSEDTATYYCARHGSGYFDYWGQGVMVTVSS[not shown - human IgG1 constant region]SGGGGSELCDDDPPEIPHATFKAMAYKEGTMLNCECKRGFRRIKSGSLYMLCTGNSSHSSWDNQCQCTSSATRNTTKQVTPQPEEQKERKTTEMQSPMQPVDQASLPGHCREPPPWENEATERIYHFVVGQMVYYQCVQGYRALHRGPAESVCKMTHGKTRWTQPQLICTSGGGGSGGGGSGGGGSGGGS[not shown - about 150 residues]
# light: B1 light
# B6: 1H3-hIgG1-L6-hCD25(1-164)-L20-hIL-2 (D84K) (other)
# heavy: EVQLVESGGGLVQPGRSLKLSCAVSGFTFSDYAMAWVRQAPKKGLEWVATISYDGSRTYYRDSVKGRFTISRDNAKITLYLQMDSLRSEDTATYYCARHGSGYFDYWGQGVMVTVSS[not shown - human IgG1 constant region]SGGGGSELCDDDPPEIPHATFKAMAYKEGTMLNCECKRGFRRIKSGSLYMLCTGNSSHSSWDNQCQCTSSATRNTTKQVTPQPEEQKERKTTEMQSPMQPVDQASLPGHCREPPPWENEATERIYHFVVGQMVYYQCVQGYRALHRGPAESVCKMTHGKTRWTQPQLICTSGGGGSGGGGSGGGGSGGGS[not shown - about 150 residues]
# light: B1 light
# B7: 1H3-hIgG1-L6-hCD25(1-164)-L20-hIL-2 (N88F) (other)
# heavy: EVQLVESGGGLVQPGRSLKLSCAVSGFTFSDYAMAWVRQAPKKGLEWVATISYDGSRTYYRDSVKGRFTISRDNAKITLYLQMDSLRSEDTATYYCARHGSGYFDYWGQGVMVTVSS[not shown - human IgG1 constant region]SGGGGSELCDDDPPEIPHATFKAMAYKEGTMLNCECKRGFRRIKSGSLYMLCTGNSSHSSWDNQCQCTSSATRNTTKQVTPQPEEQKERKTTEMQSPMQPVDQASLPGHCREPPPWENEATERIYHFVVGQMVYYQCVQGYRALHRGPAESVCKMTHGKTRWTQPQLICTSGGGGSGGGGSGGGGSGGGS[not shown - about 150 residues]
# light: B1 light
# Molecular target: T1, high-affinity hIL-2 receptor (IL-2Rαβγ) …
# Test: cell-based or functional assay
row,Fold change from hIL-2 (NK-92) [fold],Binder
1,15,B1
2,14,B2
3,17,B3
4,25,B4
5,23,B5
6,23,B6
7,25,B7

# Molecular target: T2, intermediate affinity hIL-2 receptor …
# Test: cell-based or functional assay
row,Fold change from hIL-2 (TF1 + IL-2Rβ) [fold],Binder
1,3,B1
2,1,B2
3,2,B3
4,8,B4
5,16,B5
6,17,B6
7,18,B7
